Here are results for 40 compounds from the antibiotic and cytotoxicity screens of Wong et al. (2023).

Structures are written as SMILES. This is one part of the list.

The subject of this test is HepG2. The test is described as follows: cytotoxicity call (relative viability < 0.9). The note with it: 10 µM.
On to `O=C1OC(=O)[C@H]2[C@@H]1[C@H]1CC[C@H]2O1`, for which the cytotoxicity call is “active”.

With `CC(C)NC(=O)Nc1ccc2c(c1)C(=O)N([C@H](C)CO)C[C@H](C)[C@H](CN(C)S(=O)(=O)c1cn(C)cn1)O2`, the cytotoxicity call is “inactive”.

Take `C[C@H](CO)N1C[C@H](C)[C@H](CN(C)C(=O)Nc2ccnc(N3CCOCC3)c2)OCc2cn(nn2)CCCC1=O`: the cytotoxicity call is “inactive”.

With `COCC(=O)N1c2ccccc2C[C@H]1C(N)=O`, the cytotoxicity call was “inactive”.

For the compound `Cc1cc(C(=O)Nc2cccc3c2O[C@H](CN(C)Cc2ccc4c(c2)OCO4)[C@@H](C)CN([C@H](C)CO)C3=O)n(C)n1`, the cytotoxicity call is “inactive”.

Turning to `CC(=O)Nc1ccc(O)cc1`, the cytotoxicity call is “inactive”.

Turning to `C[C@H]1CN([C@@H](C)CO)C(=O)Cc2cc(NC(=O)CCN3CCOCC3)ccc2O[C@H]1CN(C)S(=O)(=O)c1cn(C)cn1`, the cytotoxicity call is “inactive”.

Consider `C[C@@H]1CN([C@@H](C)CO)C(=O)Cc2cc(NC(=O)Cc3cn(C)c4ccccc34)ccc2O[C@H]1CN(C)C(=O)Nc1cccc2ccccc12`, for which the cytotoxicity call was “inactive”.

For the compound `C[C@@H]1CCCCO[C@H](CN(C)C(=O)c2ccccc2)[C@@H](C)CN([C@H](C)CO)C(=O)c2cc(NC(=O)Nc3ccc(C(F)(F)F)cc3)ccc2O1`, the cytotoxicity call was “inactive”.

`C[C@@H]1CCCCO[C@H](CN(C)C(=O)C2CCCCC2)[C@H](C)CN([C@@H](C)CO)C(=O)c2cc(NC(=O)C3CCCCC3)ccc2O1`: the cytotoxicity call was “inactive”.

With `COc1cccc(S(=O)(=O)N(C)C[C@@H]2Oc3ncc(-c4cccc(F)c4)cc3C(=O)N([C@H](C)CO)C[C@@H]2C)c1`, the cytotoxicity call was “inactive”.

Take `CC(C)NC(=O)N(C)C[C@@H]1Oc2c(NC(=O)C3CCOCC3)cccc2C(=O)N([C@@H](C)CO)C[C@@H]1C`: the cytotoxicity call is “inactive”.

For the compound `C[C@@H]1CN([C@@H](C)CO)C(=O)Cc2cc(NS(=O)(=O)c3cn(C)cn3)ccc2O[C@@H]1CN(C)C(=O)NC1CCCCC1`, the cytotoxicity call was “inactive”.

In the case of `Nc1ncnc2c1ncn2[C@@H]1O[C@H](CO)C[C@H]1O`, the cytotoxicity call was “inactive”.

`C[C@H](CO)N1C[C@H](C)[C@@H](CN(C)Cc2ccc(C(=O)O)cc2)Oc2ccc(NC(=O)C3CC3)cc2C1=O`: the cytotoxicity call is “inactive”.

As to `Nc1c(C(=O)c2ccccc2)no[n+]1[O-]`, the cytotoxicity call was “inactive”.

Turning to `COc1c(-c2ccccc2)oc2cc(O)cc(O)c2c1=O`, the cytotoxicity call was “inactive”.

For the compound `CC(C)NC(=O)N(C)C[C@@H]1Oc2c(NS(=O)(=O)c3cn(C)cn3)cccc2C(=O)N([C@@H](C)CO)C[C@@H]1C`, the cytotoxicity call is “inactive”.

`O=C(C[C@H]1CC[C@@H](NC(=O)CN2CCOCC2)[C@@H](CO)O1)NC1CCC1`: the cytotoxicity call was “inactive”.

As to `C/C(=C/CC[C@@H](CO)[C@H]1CC[C@@]2(C)[C@H]3CC[C@@H]4C(C)(C)[C@H](O[C@H]5O[C@@H](CO)[C@@H](O)[C@@H](O)[C@@H]5O)C[C@H](O)[C@@]45C[C@@]35CC[C@@]12C)CO[C@H]1O[C@@H](CO)[C@@H](O)[C@@H](O)[C@@H]1O`, the cytotoxicity call was “inactive”.

`O=C(C=Cc1ccccc1)c1ccc(OC2OC(CO)C(O)C(O)C2O)cc1O` (stereo not given): the cytotoxicity call was “inactive”.

Turning to `COCC#Cc1ccc2c(c1)O[C@@H](CN(C)Cc1ccc3c(c1)OCO3)[C@H](C)CN([C@H](C)CO)S2(=O)=O`, the cytotoxicity call is “inactive”.

Take `C[C@H]1CCCCO[C@H](CN(C)Cc2ccc3c(c2)OCO3)[C@@H](C)CN([C@@H](C)CO)C(=O)c2cc(NC(=O)C3CCCCC3)ccc2O1`: the cytotoxicity call is “inactive”.

For the compound `CS(=O)(=O)Nc1ccc2c(c1)[C@H]1C[C@H](CC(=O)NCc3ccc(-c4ccccc4)cc3)O[C@@H](CO)[C@H]1O2`, the cytotoxicity call was “inactive”.

Regarding `C[C@@H]1CCCCO[C@@H](CN(C)Cc2ccncc2)[C@H](C)CN([C@H](C)CO)C(=O)c2cc(NC(=O)c3ccccc3)ccc2O1`, the cytotoxicity call was “inactive”.

As for `C[C@@H]1CCCCO[C@@H](CN(C)C(=O)Nc2cccc3ccccc23)[C@@H](C)CN([C@H](C)CO)C(=O)c2cc(NC(=O)Nc3ccccc3)ccc2O1`, the cytotoxicity call is “inactive”.

For the compound `CO[C@@H]1CN(C)C(=O)c2ccc(NS(C)(=O)=O)cc2OC[C@H](C)N(C(=O)CN(C)C)C[C@H]1C`, the cytotoxicity call is “inactive”.

As for `COc1ccc(-c2cnc3c(c2)C(=O)N([C@H](C)CO)C[C@@H](C)[C@H](CN(C)C(=O)Cc2ccncc2)O3)cc1`, the cytotoxicity call was “inactive”.

For the compound `C[C@@H]1CN([C@H](C)CO)C(=O)CCCn2cc(nn2)CO[C@@H]1CN(C)S(=O)(=O)c1ccccc1C#N`, the cytotoxicity call is “inactive”.

With `Cc1ccc(=O)[nH]n1`, the cytotoxicity call was “inactive”.

For the compound `O=C(C[C@@H]1CC[C@@H]2[C@H](COC[C@H](O)CN2S(=O)(=O)c2ccc(F)cc2)O1)NCc1ccncn1`, the cytotoxicity call is “inactive”.

Turning to `CN(C)CCCNC(=O)C[C@@H]1C=C[C@@H](NC(=O)Cc2cccnc2)[C@@H](CO)O1`, the cytotoxicity call was “inactive”.

As for `C[C@@H]1CN([C@H](C)CO)C(=O)Cc2cc(NC(=O)Nc3cccc4ccccc34)ccc2O[C@@H]1CN(C)Cc1ccc(C(F)(F)F)cc1`, the cytotoxicity call was “active”.

On to `C=CC(=O)NS(=O)(=O)c1ccccc1`, for which the cytotoxicity call is “inactive”.

For `COC(=O)Cn1c(Cl)nc2c1c(=O)n(C)c(=O)n2C`, the cytotoxicity call is “inactive”.

On to `CN1CCN(C(=O)[C@H]2C[C@H]3CN(c4ncc(F)cn4)C[C@@H]3N2C)CC1`, for which the cytotoxicity call was “inactive”.

Turning to `C[C@@H]1CN([C@@H](C)CO)C(=O)c2cccc(NC(=O)c3ccncc3)c2O[C@@H]1CN(C)S(=O)(=O)c1cccs1`, the cytotoxicity call is “active”.

As for `C[C@H]1CN([C@@H](C)CO)C(=O)Cc2cc(NC(=O)Cn3cnnn3)ccc2O[C@H]1CN(C)Cc1ccc(C(=O)Nc2ccccc2N)cc1`, the cytotoxicity call was “inactive”.

As for `COc1ccc(C#Cc2ccc3c(c2)O[C@@H](CN(C)C(C)=O)[C@H](C)CN([C@@H](C)CO)S3(=O)=O)cc1`, the cytotoxicity call is “inactive”.

As for `C[C@H]1CN([C@@H](C)CO)C(=O)CCCn2nncc2CO[C@@H]1CN(C)S(=O)(=O)c1ccccc1C#N`, the cytotoxicity call is “inactive”.
